The supplement of paper PMC7125110
± gives the standard error. Variants at the background level are over-represented here.

B1: glmS ribozyme (parent)
chain: AUAAAAGCGCCAGAACUACAGAAAUGUAGUUGACGAGGAGGAGGUUUAUCGAAUUUUCGGCGGAUGCCUCCAAA

Legend:
Conditions in all cases: with glucosamine-6-phosphate
glucosamine-6-phosphate [1] = variants of: B1; experiment: self-cleavage kobs at 640 uM GlcN6P; higher = faster cleavage; RNA array
Method in brief: (§1)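 Weighted Michaelis–Menten fits across concentrations supplied kcat and KM, based on kobs from one- or two-exponential decay fits to normalised per-tile medians. The data came from barcoded ribozyme variants transcribed in situ by E. coli RNA polymerase on sequenced MiSeq chips and tracked at 37 °C by a hybridised Cy3 probe. Glucosamine-6-phosphate (40 μM to 10 mM) in HEPES/KCl/Mg(OAc)2 buffer was flowed in.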

glucosamine-6-phosphate [2] = variants of: B1; experiment: self-cleavage kobs at 2500 uM GlcN6P; higher = faster cleavage; RNA array
Method in brief: as §1

glucosamine-6-phosphate [3] = variants of: B1; experiment: self-cleavage kobs at 160 uM GlcN6P; higher = faster cleavage; RNA array
Method in brief: as §1

glucosamine-6-phosphate [4] = variants of: B1; experiment: self-cleavage kobs at 10000 uM GlcN6P; higher = faster cleavage; RNA array
Method in brief: as §1

Row | Variant | self-cleavage kobs at 640 uM GlcN6P (glucosamine-6-phosphate [1]) [s⁻¹] | self-cleavage kobs at 2500 uM GlcN6P (glucosamine-6-phosphate [2]) [s⁻¹] | self-cleavage kobs at 160 uM GlcN6P (glucosamine-6-phosphate [3]) [s⁻¹] | self-cleavage kobs at 10000 uM GlcN6P (glucosamine-6-phosphate [4]) [s⁻¹]
1 | G44A A53G G63A | < 1e-05 | < 1e-05 |  | 
2 | G51C G59A | < 1e-05 | < 1e-05 | < 1e-05 | 
3 | G43C A52C C68A | < 1e-05 |  |  | 
4 | G44U A52U G60C | < 1e-05 |  |  | 
5 | G9A C34U G37U A52U G60U |  | < 1e-05 | < 1e-05 | 
6 | G9U G40A G66A C71A |  |  | < 1e-05 | 
7 | G43C C70U | < 1e-05 |  | < 1e-05 | 
8 | A12C G43U G60C C70U |  | < 1e-05 | < 1e-05 | < 1e-05
9 | U55A U56A | 0.00306 ± 0.00092 | 0.00346 ± 0.0013 |  | 
10 | G41C U46G U57C | < 1e-05 | < 1e-05 | < 1e-05 | 
11 | A48U U55C | 0.000116 ± 2.5e-05 |  |  | 
12 | C8G U31C G43U |  |  | < 1e-05 | < 1e-05
13 | U49C G62U C71G | < 1e-05 | < 1e-05 | < 1e-05 | 
14 | G7C A12C C16A A48U |  | < 1e-05 | < 1e-05 | 
15 | A6G G43U G60U |  |  | < 1e-05 | 
16 | G7C C11U A14G A39U C50U A53G C68A C70A |  |  | < 1e-05 | 
17 | G13U A36U G43A G51A C67G C70U |  | < 1e-05 | < 1e-05 | 
18 | U47A A52C C71A | < 1e-05 | < 1e-05 |  | 
19 | U47C C70G | 0.000172 ± 3.5e-05 | 0.00012 ± 3e-05 | 7.93e-05 ± 2.2e-05 | 0.000256 ± 0.0001
20 | G9U U55A |  | < 1e-05 | < 1e-05 | < 1e-05
21 | A12G A48C U57A C58A |  | < 1e-05 | < 1e-05 | 

Row | Variant | self-cleavage kobs at 640 uM GlcN6P (glucosamine-6-phosphate [1]) [s⁻¹] | self-cleavage kobs at 2500 uM GlcN6P (glucosamine-6-phosphate [2]) [s⁻¹] | self-cleavage kobs at 160 uM GlcN6P (glucosamine-6-phosphate [3]) [s⁻¹] | self-cleavage kobs at 10000 uM GlcN6P (glucosamine-6-phosphate [4]) [s⁻¹]
22 | A42C C58U | < 1e-05 |  | < 1e-05 | 
23 | G44C C68A U69G | < 1e-05 |  |  | 
24 | C8U A33G G62A G63U |  |  | < 1e-05 | 
25 | A6G A12C C67U |  |  | < 1e-05 | 
26 | G43U U65A | < 1e-05 |  | < 1e-05 | 
27 | A12U U46C C67A |  | 0.00113 ± 0.0002 | 0.00011 ± 2.6e-05 | 
28 | U45A G51C A52C C70U | < 1e-05 |  | < 1e-05 | 
29 | U55C C71A | 5.32e-05 ± 6.9e-06 | 0.000174 ± 1.9e-05 |  | 0.000283 ± 2.2e-05
30 | C10G G32U U54G C68A |  |  | 5.61e-05 ± 2.2e-05 | 
31 | C58U C70A | 3.84e-05 ± 1.4e-05 |  |  | 
32 | U45G G59U C71G | < 1e-05 | < 1e-05 |  | 
33 | A12G A15G G29A G32C G37U |  |  | < 1e-05 | 
34 | A6U A39U U45A A52C |  |  | < 1e-05 | 
35 | A48U C58U A64C | < 1e-05 | < 1e-05 |  | 
36 | G9U C16U G32A A64U |  |  | < 1e-05 | 
37 | G44A C58G | < 1e-05 | < 1e-05 |  | 
38 | A12G G13A U45C U49C C50A A52C A53U G66U |  | < 1e-05 | < 1e-05 | 
39 | A48C G63A | < 1e-05 | < 1e-05 |  | 
40 | A42G G44A U56A G59C C68A | < 1e-05 | < 1e-05 |  | 
41 | A42C G43A | < 1e-05 | < 1e-05 | < 1e-05 | < 1e-05
42 | C50G G60C C70A | 0.000161 ± 5.8e-05 | 5.41e-05 ± 2.7e-05 |  | 

Row | Variant | self-cleavage kobs at 640 uM GlcN6P (glucosamine-6-phosphate [1]) [s⁻¹] | self-cleavage kobs at 2500 uM GlcN6P (glucosamine-6-phosphate [2]) [s⁻¹] | self-cleavage kobs at 160 uM GlcN6P (glucosamine-6-phosphate [3]) [s⁻¹] | self-cleavage kobs at 10000 uM GlcN6P (glucosamine-6-phosphate [4]) [s⁻¹]
43 | A52U U56G | 2.83e-05 ± 1.1e-05 | 5.36e-05 ± 9.7e-06 |  | 0.000122 ± 2.5e-05
44 | U45C C58A G62C C71U | < 1e-05 |  |  | 
45 | G43A U54C G63U G66U C71G | < 1e-05 |  |  | 
46 | A42C U65A | < 1e-05 | < 1e-05 |  | < 1e-05
47 | G41U U57A | < 1e-05 | < 1e-05 |  | 
48 | U55G G62C | < 1e-05 | < 1e-05 | < 1e-05 | < 1e-05
49 | U54A C61G C71G | 7.31e-05 ± 1.7e-05 | 0.000139 ± 4.6e-05 |  | 
50 | G7C G29A U30A C71U |  | < 1e-05 | < 1e-05 | 
51 | U49G U56A | 0.000105 ± 1.9e-05 | 0.000173 ± 4.1e-05 |  | 0.000466 ± 9.5e-05
52 | C50G C58U C61U | 0.000479 ± 0.00011 |  |  | 
53 | G43C C50A | < 1e-05 | < 1e-05 |  | 
54 | U57G C67A U69G | 4.87e-05 ± 2.3e-05 |  |  | 
55 | G41U U49G G60U G66C | < 1e-05 | < 1e-05 |  | 
56 | C8U G35U G62C C71U |  |  | < 1e-05 | 
57 | G13C C16U G38U |  |  | < 1e-05 | 
58 | A6C A36C A48U |  |  | < 1e-05 | 
59 | U45C G62C C67U | < 1e-05 |  | < 1e-05 | 
60 | C10G A14U A42U G60C C67G |  |  | < 1e-05 | 
61 | G9U C34U G66U |  |  | < 1e-05 | 
62 | C11G U31C G44A |  | < 1e-05 | < 1e-05 | 
